Reference: PubChem BioAssay (Tox21)
The shares of active, inactive and inconclusive entries below differ from those in the screen. For some assays here: Where the call is inconclusive, the potency comes from a doubtful curve fit. Active and inactive are the calls of the source. Unless noted, calls follow the shape of the dose curve; as a rule, active = well fitted curve in the direction sought with a large enough effect in the repeat runs; inconclusive = weak or mixed curves; inactive = no such curve, though single readings can be large; an effect the other way counts as inactive or inconclusive.

Tests used:
[1] = qHTS assay for identifying genotoxic compounds that show differential cytotoxicity against isogenic chicken DT40 cell lines with known DNA damage response pathways - wild type cell line (AID 743012); conditions: DT40 wild type chicken cells viability, CellTiter-Glo, 40 h; activity change, negative = cytotoxicity: at 68.4 µM (top of the series) unless noted; also: potency is read from the fitted curve at half-maximal effect; nearly all actives have a fitted effect of over 60% in size
Procedure, shortened: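 Viability of DNA repair-proficient chicken DT40 cells was assessed by CellTiter-Glo luminescence following 40 h compound exposure at 37 C/5% CO2.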

[2] = qHTS assay for identifying genotoxic compounds that show differential cytotoxicity against isogenic chicken DT40 cell lines with known DNA damage response pathways - Rev3 mutant cell line (AID 743014); conditions: chicken DT40 Rev3-/- viability, CellTiter-Glo, 40 h; activity, negative = cytotoxicity: at 68.4 µM (top of the series) unless noted; also: % is scaled to controls: 0 for no effect and ±100 for the full control effect; nearly all actives have a fitted effect of over 55% in size
[3] = qHTS assay for identifying genotoxic compounds that show differential cytotoxicity against isogenic chicken DT40 cell lines with known DNA damage response pathways - Rad54/Ku70 mutant cell line (AID 743015); conditions: DT40 Rad54/Ku70 mutant viability, CellTiter-Glo, 40 h; activity change, negative = cytotoxicity: at 66.8 µM (top of the series) unless noted; also: potency is read from the fitted curve at half-maximal effect; nearly all actives have a fitted effect of over 60% in size
[4] = qHTS assay to identify small molecule antagonists of the androgen receptor (AR) signaling pathway using the MDA cell line - cell viability counter screen (AID 743041; also: potency is read from the fitted curve at half-maximal effect; nearly all actives have a fitted effect of over 45% in size); conditions: MDA-kb2 viability, CellTiter-Fluor, 16 h, cells co-treated with R1881 androgen agonist; viability change, negative = cytotoxic: at 70.3 µM (top of the series)
Procedure, shortened: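 Viability read by CellTiter-Fluor fluorescence in the same wells as the antagonist screen, added after 15.5 h of a 16 h, 37C exposure. Human breast carcinoma MDA-kb2 AR-luc cells, compounds co-dosed with agonist R1881.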

[5] = qHTS assay to identify small molecule antagonists of the thyroid receptor (TR) signaling pathway - cell viability counter screen (AID 743064); conditions: GH3.TRE-Luc viability, CellTiter-Fluor, 24 h; activity change, negative = cytotoxic: at 70.3 µM (top of the series) unless noted; also: potency is read from the fitted curve at half-maximal effect; nearly all actives have a fitted effect of over 50% in size
Procedure, shortened: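 GH3.TRE-Luc rat pituitary cells dosed after 4 hr plating, co-stimulated with T3 at 1 nM final, incubated 23.5 h at 37 C. Viability measured in the same wells by CellTiter-Fluor fluorescence after 30 min further at 37 C.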

[6] = qHTS assay to identify small molecule antagonists of the thyroid receptor (TR) signaling pathway (AID 743065); also: potency is read from the fitted curve at half-maximal effect; nearly all actives have a fitted effect of over 55% in size
Procedure, shortened: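 Antagonism measured as loss of luciferase signal in GH3 cells stably carrying a TRE-luciferase reporter, co-treated with compound and T3 (1 nM final) for 23.5 h at 37 C. Viability was read in the same well by CellTiter-Fluor.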

[7] = biological target: Estrogen receptor (Homo sapiens) (UniProt P03372); assay: qHTS assay to identify small molecule agonists of the estrogen receptor alpha (ER-alpha) signaling pathway using the BG1 cell line (AID 743079); conditions: BG1Luc4E2 cells, ERE-luciferase agonist, 22 h; activation: at 70.3 µM (top of the series) unless noted; also: % is scaled to controls: 0 for no effect and ±100 for the full control effect; nearly all actives have a fitted effect of over 20% in size
[8] = qHTS assay to identify small molecule antagonists of the estrogen receptor alpha (ER-alpha) signaling pathway using the BG1 cell line (AID 743080; calls by dose curve;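 also: BG1 cells stimulated with 17beta-estradiol alongside compound; potency is read from the fitted curve at half-maximal effect; nearly all actives have a fitted effect of over 25% in size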); conditions: BG1Luc4E2 ERE-luciferase antagonist mode, luminescence; activity change, negative = inhibition: at 70.3 µM (top of the series) unless noted
Procedure, shortened: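 Readout is ONE-Glo luminescence, taken 30 min at room temperature after reagent addition, preceded by a CellTiter-Fluor viability read; BG1-Luc-4E2 cells had received compound and 17beta-estradiol for 21.5 h at 37 C.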

[9] = biological target: Peroxisome proliferator-activated receptor gamma (Homo sapiens) (UniProt P37231); assay: qHTS assay to identify small molecule agonists of the peroxisome proliferator-activated receptor gamma (PPARg) signaling pathway (AID 743094; active = well fitted activation curve with a large enough effect in the signal ratio in the repeat runs, not every such curve was filed as active; inconclusive = weak or mixed curves, or effect the other way; inactive = no such curve, though single readings can be large or run the other way; the % refers to the signal ratio; also: % is scaled to controls: 0 for no effect and ±100 for the full control effect); conditions: HEK293H PPARg-UAS-bla, beta-lactamase FRET ratio, 17 h; activation: at 57 µM (top of the series) unless noted
Procedure, shortened: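 Agonism was assessed in a beta-lactamase reporter system, HEK293H cells with a stably integrated UAS-bla construct under PPARg control; the 17 h treatment at 37C preceded a 1 h room-temperature FRET substrate read.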

[10] = qHTS assay for small molecule agonists of the antioxidant response element (ARE) signaling pathway (AID 743202; active = well fitted activation curve with a large enough effect in the signal ratio in the repeat runs, not every such curve was filed as active; inconclusive = weak or mixed curves, or effect the other way; inactive = no such curve, though single readings can be large or run the other way; the % refers to the signal ratio; also: % is scaled to controls: 0 for no effect and ±100 for the full control effect); conditions: HepG2 ARE-bla reporter, beta-lactamase FRET, 16 h; activation: at 73.3 µM (top of the series) unless noted
Procedure, shortened: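 After 16 hours of compound treatment at 37 C, HepG2 cells with a stably integrated ARE-driven beta-lactamase reporter were loaded 2 hours at room temperature with LiveBLAzer B/G FRET substrate and fluorescence intensity measured.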

[11] = qHTS assay to identify small molecule antagonists of the peroxisome proliferator-activated receptor delta (PPARd) signaling pathway - cell viability counter screen (AID 743213); conditions: PPARd-bla HEK293H viability, CellTiter-Glo luminescence, 17 h; viability change, negative = cytotoxic: at 62 µM (top of the series) unless noted; also: potency is read from the fitted curve at half-maximal effect; nearly all actives have a fitted effect of over 50% in size
Procedure, shortened: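 Viability counter-screen, qHTS format: PPARd-bla HEK293H, L165041 300 nM final, 17 h compound exposure at 37 C, CellTiter-Glo luminescence after 30 min RT.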

[12] = biological target: Peroxisome proliferator-activated receptor delta (Homo sapiens) (UniProt Q03181); assay: qHTS assay to identify small molecule antagonists of the peroxisome proliferator-activated receptor delta (PPARd) signaling pathway (AID 743215; active = well fitted inhibition curve with a large enough effect in the signal ratio in the repeat runs, not every such curve was filed as active; inconclusive = weak or mixed curves, or effect the other way; inactive = no such curve, though single readings can be large or run the other way; the % refers to the signal ratio;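 also: cells stimulated with agonist L165041 at 300 nM final during compound exposure; % is scaled to controls: 0 for no effect and ±100 for the full control effect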); conditions: HEK293H PPARd-UAS-bla, beta-lactamase FRET ratio, antagonist, 17 h; ratio activity, negative = inhibition: at 62 µM (top of the series) unless noted
Procedure, shortened: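 Here, a reporter line (HEK293H, beta-lactamase under a UAS) measures PPARd signaling. Compounds are tested against agonist L165041 at 300 nM final concentration over 17 h at 37 C, with fluorescence read after substrate.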

[13] = qHTS assay to identify small molecule agonists of the farnesoid-X-receptor (FXR) signaling pathway - cell viability counter screen (AID 743218); conditions: FXR-bla HEK293T viability, CellTiter-Glo luminescence, 16 h; viability change, negative = cytotoxic: at 62.6 µM (top of the series) unless noted; also: potency is read from the fitted curve at half-maximal effect; nearly all actives have a fitted effect of over 45% in size
Procedure, shortened: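 Quantitative HTS counter screen measuring ATP-based viability via CellTiter-Glo luminescence in HEK 293T cells carrying a UAS-driven beta-lactamase reporter, after 16 h compound exposure at 37 C.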

[14] = qHTS assay to identify small molecule antagonists of the estrogen related receptor (ERR) signaling pathway - cell viability counter screen (AID 1224818); also: % is scaled to controls: 0 for no effect and ±100 for the full control effect
Procedure, shortened: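 Viability of ERR cells, CellTiter-Fluor fluorescence; 17.5 h compound exposure at 37 C, DMSO vehicle; 30 min reagent incubation at 37 C/5% CO2.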

[15] = qHTS assay to identify small molecule agonists of H2AX (AID 1224845; active = well fitted activation curve with a large enough effect in the signal ratio in the repeat runs, not every such curve was filed as active; inconclusive = weak or mixed curves; the % refers to the signal ratio; also: potency is read from the fitted curve at half-maximal effect); conditions: CHO-K1 phospho-H2AX Ser139 HTRF, 3 h; activation (H2AX phosphorylation): at 154 µM (top of the series) unless noted
Procedure, shortened: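 Phospho-H2AX Ser139 measured by HTRF (ex 320 nm; em 665 and 620 nm) after 24 hr antibody incubation. Compounds, 15 concentrations, 0.76% DMSO, were applied to CHO-K1 cells for 3hr at 37C before lysis.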

[16] = qHTS assay to identify small molecule antagonists of the androgen receptor (AR) signaling pathway using the MDA cell line in the presence of 0.5 nM R1881 - cell viability counter screen (AID 1259242); also: % is scaled to controls: 0 for no effect and ±100 for the full control effect; nearly all actives have a fitted effect of over 45% in size
Procedure, shortened: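 Cells seeded at 3,000/well and allowed 5 hr at 37C, 0% CO2 before compound transfer and R1881 (0.5 nM final) addition; 16 hr later, live-cell protease fluorescence indicated cytotoxicity.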

[17] = qHTS assay to identify small molecule HDAC inhibitors (AID 1259364);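 also: wild-type HCT-116 cells with endogenous class I/II HDAC activity; potency is read from the fitted curve at half-maximal effect; nearly all actives have a fitted effect of over 45% in size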
Procedure, shortened: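 HCT-116 wt cells, 1,500/well, overnight attach. Compounds (DMSO) 2 h, 37 °C. HDAC-Glo I/II, 30 min RT. Luminescence.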

[18] = biological target: Estrogen receptor beta (Homo sapiens) (UniProt Q92731); assay: qHTS assay to identify small molecule antagonists of the estrogen receptor beta (ER-beta) signaling pathway (AID 1259378; active = well fitted inhibition curve with a large enough effect in the signal ratio in the repeat runs, not every such curve was filed as active; inconclusive = weak or mixed curves, or effect the other way; inactive = no such curve, though single readings can be large or run the other way; the % refers to the signal ratio; also: % is scaled to controls: 0 for no effect and ±100 for the full control effect); conditions: ER-beta-UAS-bla HEK293T, beta-lactamase FRET ratio, 16 h; activity, negative = inhibition: at 92.4 µM (top of the series) unless noted
Procedure, shortened: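 Antagonist mode: compounds added to beta-lactamase reporter HEK293T ER-beta-UAS cells stimulated with E2 (1nM final), 16 hr at 37C. LiveBLAzer B/G FRET substrate, 2 hours room temperature, fluorescence read-out.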

[19] = qHTS assay to identify small molecule agonists of the estrogen receptor beta (ER-beta) signaling pathway - cell viability counter screen (AID 1259380); also: potency is read from the fitted curve at half-maximal effect; nearly all actives have a fitted effect of over 30% in size
Procedure, shortened: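 Compounds dissolved in DMSO were pin-transferred onto ER-beta-UAS-bla HEK293T cells that had settled 6 hr, and exposure ran 16 hr at 37C. Following the reporter read, CellTiter-Glo luminescence after 30 min at room temperature indicated cytotoxicity.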

[20] = qHTS assay to identify small molecule antagonists of the estrogen receptor beta (ER-beta) signaling pathway - cell viability counter screen (AID 1259382);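 also: HEK293T cells carrying ER-beta-UAS-bla reporter stimulated with estradiol; % is scaled to controls: 0 for no effect and ±100 for the full control effect; nearly all actives have a fitted effect of over 55% in size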
Procedure, shortened: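 CellTiter-Glo ATP luminescence measured after the LiveBLAzer read in the same wells; ER-beta-UAS-bla HEK293T cells, 16 hr compound treatment with 1nM 17-beta-estradiol agonist at 37C, 5% CO2.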

[21] = qHTS assay to identify small molecule agonists of the TGF-beta/Smad signaling pathway (AID 1346859; active = well fitted activation curve with a large enough effect in the signal ratio in the repeat runs, not every such curve was filed as active; inconclusive = weak or mixed curves; the % refers to the signal ratio; also: potency is read from the fitted curve at half-maximal effect)
Procedure, shortened: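 SBE-bla HEK293T cells plated overnight, then compound exposure for 5 h at 37 C. Beta-lactamase reporter read with LiveBLAzer B/G FRET substrate after 2 h at room temperature, fluorescence at 405 nm excitation, 460/530 nm emission.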

[22] = biological target: Cytochrome P450 2D6 (Homo sapiens) (UniProt P10635); assay: Cytochrome P450 Family 2 Subfamily D Member 6 (CYP2D6) small molecule antagonists: luciferase reporter qHTS assay (AID 1671196); also: potency is read from the fitted curve at half-maximal effect; nearly all actives have a fitted effect of over 50% in size
Procedure, shortened: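 Room-temperature luminescent CYP2D6 activity assay: compound preincubated 10 min with enzyme–substrate mix, NADPH-initiated reaction 1 h, detection reagent 20 min before reading.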

[23] = biological target: Cytochrome P450 2C19 (Homo sapiens) (UniProt P33261); assay: Cytochrome P450 Family 2 Subfamily C Member 19 (CYP2C19) small molecule antagonists: luciferase reporter qHTS assay (AID 1671197); also: potency is read from the fitted curve at half-maximal effect; nearly all actives have a fitted effect of over 65% in size
Procedure, shortened: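 Inhibition of CYP2C19 was scored from loss of luminescence in a P450-Glo proluciferin substrate assay, NADPH-started and run 1 h at 37C, with ketoconazole as positive control.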
Tags tell the direction and shape of the fitted curve or compound fluorescence and quenching.

Sequence of UniProt Q03181 (Q03181 whole entry, looked up): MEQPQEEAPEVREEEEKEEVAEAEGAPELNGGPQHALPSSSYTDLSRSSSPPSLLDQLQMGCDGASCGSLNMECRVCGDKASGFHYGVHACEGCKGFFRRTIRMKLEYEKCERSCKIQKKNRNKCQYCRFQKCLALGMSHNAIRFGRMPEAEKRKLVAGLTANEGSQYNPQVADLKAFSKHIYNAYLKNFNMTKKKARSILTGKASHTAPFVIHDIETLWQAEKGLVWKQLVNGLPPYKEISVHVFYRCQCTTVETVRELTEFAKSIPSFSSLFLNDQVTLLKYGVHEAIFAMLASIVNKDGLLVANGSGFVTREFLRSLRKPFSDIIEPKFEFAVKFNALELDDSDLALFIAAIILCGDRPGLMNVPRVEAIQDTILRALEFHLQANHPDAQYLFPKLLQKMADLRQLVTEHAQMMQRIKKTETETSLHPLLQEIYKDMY
Sequence of UniProt P37231 (P37231 whole entry, looked up): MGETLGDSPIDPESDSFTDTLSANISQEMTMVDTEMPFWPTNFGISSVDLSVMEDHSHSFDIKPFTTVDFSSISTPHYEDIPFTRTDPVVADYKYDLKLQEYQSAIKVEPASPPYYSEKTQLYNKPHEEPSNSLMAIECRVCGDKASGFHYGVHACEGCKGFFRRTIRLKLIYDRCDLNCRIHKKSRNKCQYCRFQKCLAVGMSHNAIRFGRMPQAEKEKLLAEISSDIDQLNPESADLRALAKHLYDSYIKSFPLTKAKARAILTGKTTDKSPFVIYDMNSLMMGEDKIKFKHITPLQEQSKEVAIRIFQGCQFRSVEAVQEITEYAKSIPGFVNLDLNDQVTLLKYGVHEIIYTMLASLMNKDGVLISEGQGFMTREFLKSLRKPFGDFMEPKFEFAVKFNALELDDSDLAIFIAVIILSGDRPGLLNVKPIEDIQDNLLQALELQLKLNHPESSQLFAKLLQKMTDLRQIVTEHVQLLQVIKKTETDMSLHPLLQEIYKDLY
Sequence of UniProt P33261 (P33261 whole entry, looked up): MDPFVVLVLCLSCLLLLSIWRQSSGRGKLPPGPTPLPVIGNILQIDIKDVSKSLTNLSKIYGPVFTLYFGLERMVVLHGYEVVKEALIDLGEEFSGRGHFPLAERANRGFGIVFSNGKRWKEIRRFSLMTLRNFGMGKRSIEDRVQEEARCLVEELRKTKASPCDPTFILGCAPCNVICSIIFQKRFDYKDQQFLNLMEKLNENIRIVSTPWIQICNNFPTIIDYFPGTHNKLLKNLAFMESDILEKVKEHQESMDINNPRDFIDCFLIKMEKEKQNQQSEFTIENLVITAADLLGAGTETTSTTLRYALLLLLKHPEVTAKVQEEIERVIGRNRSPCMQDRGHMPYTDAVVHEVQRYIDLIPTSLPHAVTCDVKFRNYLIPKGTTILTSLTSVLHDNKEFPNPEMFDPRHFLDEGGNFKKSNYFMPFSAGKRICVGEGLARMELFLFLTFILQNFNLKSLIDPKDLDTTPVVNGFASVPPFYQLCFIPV
Sequence of UniProt Q92731 (Q92731 whole entry, looked up): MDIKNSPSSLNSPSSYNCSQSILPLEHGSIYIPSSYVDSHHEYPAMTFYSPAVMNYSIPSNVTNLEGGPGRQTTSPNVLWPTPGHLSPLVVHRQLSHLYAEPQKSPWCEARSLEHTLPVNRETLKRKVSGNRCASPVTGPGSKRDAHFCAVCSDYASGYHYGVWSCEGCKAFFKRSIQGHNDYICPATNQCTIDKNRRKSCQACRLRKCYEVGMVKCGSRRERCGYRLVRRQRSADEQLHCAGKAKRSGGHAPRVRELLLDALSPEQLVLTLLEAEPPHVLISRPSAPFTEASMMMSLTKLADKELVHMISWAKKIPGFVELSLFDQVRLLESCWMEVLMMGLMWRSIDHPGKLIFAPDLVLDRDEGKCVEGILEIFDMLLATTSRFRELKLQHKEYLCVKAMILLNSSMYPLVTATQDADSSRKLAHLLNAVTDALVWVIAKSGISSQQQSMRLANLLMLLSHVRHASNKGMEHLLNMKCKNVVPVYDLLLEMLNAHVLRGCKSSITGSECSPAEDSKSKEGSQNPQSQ
Sequence of UniProt P10635 (P10635 whole entry, looked up): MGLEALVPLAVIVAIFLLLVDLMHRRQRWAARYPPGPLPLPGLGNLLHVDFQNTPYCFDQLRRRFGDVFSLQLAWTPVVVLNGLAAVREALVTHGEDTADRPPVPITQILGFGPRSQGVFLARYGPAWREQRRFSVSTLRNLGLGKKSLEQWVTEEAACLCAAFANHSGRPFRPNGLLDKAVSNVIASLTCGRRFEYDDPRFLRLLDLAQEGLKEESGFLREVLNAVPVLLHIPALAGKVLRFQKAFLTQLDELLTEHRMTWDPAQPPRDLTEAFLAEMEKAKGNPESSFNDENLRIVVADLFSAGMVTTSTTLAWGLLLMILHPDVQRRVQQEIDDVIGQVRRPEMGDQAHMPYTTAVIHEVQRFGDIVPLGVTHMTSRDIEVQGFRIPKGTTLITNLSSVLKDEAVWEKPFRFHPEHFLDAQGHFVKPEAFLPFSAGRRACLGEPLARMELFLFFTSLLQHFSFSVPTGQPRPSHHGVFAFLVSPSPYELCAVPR
Sequence of UniProt P03372 (P03372 whole entry, looked up): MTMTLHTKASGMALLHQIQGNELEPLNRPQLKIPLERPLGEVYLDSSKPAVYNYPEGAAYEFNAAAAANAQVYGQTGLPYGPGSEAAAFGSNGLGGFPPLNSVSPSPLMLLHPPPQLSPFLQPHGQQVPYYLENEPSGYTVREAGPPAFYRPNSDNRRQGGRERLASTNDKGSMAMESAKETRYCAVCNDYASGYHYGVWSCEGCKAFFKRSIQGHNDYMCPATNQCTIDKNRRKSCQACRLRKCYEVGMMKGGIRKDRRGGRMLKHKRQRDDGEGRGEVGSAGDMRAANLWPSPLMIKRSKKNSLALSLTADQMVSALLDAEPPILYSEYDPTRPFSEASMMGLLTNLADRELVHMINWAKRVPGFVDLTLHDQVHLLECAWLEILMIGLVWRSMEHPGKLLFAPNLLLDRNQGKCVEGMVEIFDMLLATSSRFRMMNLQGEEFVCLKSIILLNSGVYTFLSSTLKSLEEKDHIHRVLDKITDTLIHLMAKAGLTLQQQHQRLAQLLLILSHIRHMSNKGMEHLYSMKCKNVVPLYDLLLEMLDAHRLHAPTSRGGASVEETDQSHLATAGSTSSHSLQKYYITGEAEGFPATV

CCCN1C[C@H](CSC)C[C@@H]2c3cccc4[nH]cc(c34)C[C@H]21
active: Potency [22] 0.155 µM
inconclusive: Potency [1] 6.68 µM [cytotoxic, partial curve, poor fit] | Potency [3] 13.3 µM [cytotoxic, partial curve, poor fit] | Potency [4] 31.2 µM [cytotoxic, partial curve, poor fit] | Potency [5] 10.6 µM [cytotoxic, full curve] | Potency [6] 9.44 µM [inhibitor, full curve] | activation [7] 12.5% [phenotype inactive] | Potency [8] 9.44 µM [rising, partial curve] | activation [9] 1.21% | Potency [11] 0.266 µM [cytotoxic, single point] | Potency [13] 10.6 µM [cytotoxic] | Potency [15] 55.2 µM [fluorescent] | Potency [17] 33.5 µM [inhibitor, single point] | activity, negative = inhibition [18] 1.21% [at 42.5 µM] | Potency [19] 5.96 µM [cytotoxic, partial curve, poor fit] | Potency [21] 10.7 µM [rising, partial curve] | Potency [23] 9.77 µM [inhibitor, single point]
inactive: Potency [2] | Potency [10] | Potency [12] | Potency [14] | Potency [16] | Potency [20]
